In publication PMC11995724, “Antibiotic target discovery by integrated phenotypic and activity-based profiling of electrophilic fragments” (Cell chemical biology, 2025):
Hit rate of the full screen: of about 3,200 compounds, about 75 (2%) showed an effect of 50% or more. The list shows a part of the results.

What follows are compounds tested on T1, S. aureus MSSA476. Details: relative growth, OD600, TSB; 25 µM; inhibitor.
T1 construct: MSSA476
Set-up: species or system S. aureus MSSA476 (TSB) or V. cholerae SAD30 (LB); 384-well bacterial growth screen at 25 uM, OD600 relative to DMSO control

| Compound | % of control remaining [%] |
| --- | --- |
| CSc1ccc(C=C(C#N)C(=O)Nc2c(C)cc(C)cc2C)cc1 [8-G15, 2-cyano-3-[4-(methylsulfanyl)phenyl]-N-(2,4,6-trimethylphenyl)prop-2-enamide] | 97.9253 |
| O=C1C=CC(=O)N1c1ccc(OC(F)(F)F)cc1 [10-J19, 1-[4-(trifluoromethoxy)phenyl]-2,5-dihydro-1H-pyrrole-2,5-dione] | 5.9375 |
| CC(=O)c1ccc(S(=O)(=O)N2CCN(C(=O)CCl)CC2)cc1 [5-P16, 1-[4-(4-acetylbenzenesulfonyl)piperazin-1-yl]-2-chloroethan-1-one] | 107.104 |
| N#CC(=Cc1ccc(F)cc1)C(=O)Nc1cccc2ncccc12 [9-C21, 2-cyano-3-(4-fluorophenyl)-N-(quinolin-5-yl)prop-2-enamide] | 75.5056 |
| CC(=O)NCCc1cc(C(=O)CCl)ccc1F [10-O05, N-{2-[5-(2-chloroacetyl)-2-fluorophenyl]ethyl}acetamide] | 128.438 |
| N#CC(C(=O)N1CCCCC1)=C1N=C(N)c2ccccc21 [9-A21, 2-(3-amino-1H-isoindol-1-ylidene)-3-oxo-3-(piperidin-1-yl)propanenitrile] | 97.9775 |
| Cn1c(=O)oc2cc(C(=O)CCl)ccc21 [10-F07, 6-(2-chloroacetyl)-3-methyl-2,3-dihydro-1,3-benzoxazol-2-one] | 93.125 |
| Cn1c(N)c(C(=O)CCl)c(=O)[nH]c1=O [10-I16, 6-amino-5-(2-chloroacetyl)-1-methyl-1,2,3,4-tetrahydropyrimidine-2,4-dione] | 115.938 |
| N#CC(=Cc1sc2ccccc2c1Cl)C(=O)NC1CC1 [9-C18, 3-(3-chloro-1-benzothiophen-2-yl)-2-cyano-N-cyclopropylprop-2-enamide] | 110.262 |
| CC(Cl)C(=O)Nc1ccc2oc(=O)n(CCN(C)C)c2c1 (centres unmarked) [5-L19, 2-chloro-N-{3-[2-(dimethylamino)ethyl]-2-oxo-2,3-dihydro-1,3-benzoxazol-5-yl}propanamide] | 100.182 |
| CN(CC(=O)Nc1ccccc1Cl)C(=O)CCl [4-D05, 2-chloro-N-{[(2-chlorophenyl)carbamoyl]methyl}-N-methylacetamide] | 122.344 |
| C=CC(=O)NCc1nnc(C2CCOCC2)[nH]1 [2-M22, N-{[5-(oxan-4-yl)-4H-1,2,4-triazol-3-yl]methyl}prop-2-enamide] | 86.6841 |
| C=CC(=O)NCC1CCCc2nccn21 (centres unmarked) [2-B15, N-({5H,6H,7H,8H-imidazo[1,2-a]pyridin-5-yl}methyl)prop-2-enamide] | 128.46 |
| O=C(CCl)Nc1ccccc1Sc1ccc(Cl)cc1 [4-O13, 2-chloro-N-{2-[(4-chlorophenyl)sulfanyl]phenyl}acetamide] | 116.246 |
| CCCCNC(=O)C(C#N)=Cc1c(Cl)cccc1Cl [9-J11, N-butyl-2-cyano-3-(2,6-dichlorophenyl)prop-2-enamide] | 79.4007 |
| Cc1cc(C(=O)CCl)c(C)n1-c1ccc(Cl)c(C(F)(F)F)c1 [10-L18, 2-chloro-1-{1-[4-chloro-3-(trifluoromethyl)phenyl]-2,5-dimethyl-1H-pyrrol-3-yl}ethan-1-one] | 0.3125 |
| C=CCNC(=O)C(C#N)=Cc1cnn(-c2ccc(Cl)cc2)c1 [9-M16, 3-[1-(4-chlorophenyl)-1H-pyrazol-4-yl]-2-cyano-N-(prop-2-en-1-yl)prop-2-enamide] | 84.4944 |
| N#CC(=Cc1cc(F)ccc1F)C(=O)Nc1ccc2c(c1)OCCO2 [8-I10, 2-cyano-3-(2,5-difluorophenyl)-N-(2,3-dihydro-1,4-benzodioxin-6-yl)prop-2-enamide] | 86.639 |
| C=CC(=O)N1CCC(C(=O)Nc2n[nH]c3cc(C#N)c(C)cc23)CC1 [3-J18, N-(6-cyano-5-methyl-1H-indazol-3-yl)-1-(prop-2-enoyl)piperidine-4-carboxamide] | 113.539 |
| CCCCNC(=O)C(C#N)=Cc1cc(C)cc(C)c1 [9-C03, N-butyl-2-cyano-3-(3,5-dimethylphenyl)prop-2-enamide] | 123.146 |
| COc1ccc(C=C(C#N)C(=O)Nc2ccc(Cl)cc2Cl)cc1 [8-K03, 2-cyano-N-(2,4-dichlorophenyl)-3-(4-methoxyphenyl)prop-2-enamide] | 117.51 |
| C=CC(=O)N(C)[C@H]1CS(=O)(=O)C[C@@H]1O (racemic) [3-C15, rac-N-[(3R,4R)-4-hydroxy-1,1-dioxo-1lambda6-thiolan-3-yl]-N-methylprop-2-enamide] | 103.439 |

| Compound | % of control remaining [%] |
| --- | --- |
| O=C1C=CC(=O)N1c1cccc(O)c1 [10-O07, 1-(3-hydroxyphenyl)-2,5-dihydro-1H-pyrrole-2,5-dione] | 125.313 |
| O=C1C=CC(=O)N1c1ccccc1Sc1ccc(Cl)cc1 [10-A03, 1-{2-[(4-chlorophenyl)sulfanyl]phenyl}-2,5-dihydro-1H-pyrrole-2,5-dione] | 10.9375 |
| O=C(CCl)NCc1ccccc1OC(F)(F)F [4-L21, 2-chloro-N-{[2-(trifluoromethoxy)phenyl]methyl}acetamide] | 121.582 |
| O=C(CCl)N1N=C(c2ccc3ccccc3c2)CC1c1ccccc1 (centres unmarked) [4-K22, 2-chloro-1-[3-(naphthalen-2-yl)-5-phenyl-4,5-dihydro-1H-pyrazol-1-yl]ethan-1-one] | 117.008 |
| O=C(CCl)Nc1cc(C2CCCC2)nn1-c1ccccc1 [4-J03, 2-chloro-N-(3-cyclopentyl-1-phenyl-1H-pyrazol-5-yl)acetamide] | 103.668 |
| O=C(CCl)NC1CCC2(CCC1(F)F)OCCO2 (centres unmarked) [5-G09, 2-chloro-N-{9,9-difluoro-1,4-dioxaspiro[4.6]undecan-8-yl}acetamide] | 110.383 |
| CC(Cl)C(=O)NC(=O)NCc1ccccc1 (centres unmarked) [6-P06, 1-benzyl-3-(2-chloropropanoyl)urea] | 88.439 |
| CN(C)c1ccc(C=C(C#N)C(=O)Nc2ccccc2C(=O)O)cc1 [9-I08, 2-{2-cyano-3-[4-(dimethylamino)phenyl]prop-2-enamido}benzoic acid] | 63.8202 |
| N#CC(=Cc1c(Cl)cccc1Cl)C(=O)NCc1ccco1 [9-K06, 2-cyano-3-(2,6-dichlorophenyl)-N-[(furan-2-yl)methyl]prop-2-enamide] | 96.4794 |
| CC(C)NC(=O)C(C#N)=Cc1ccc(OC(C)C)cc1 [8-G12, 2-cyano-N-(propan-2-yl)-3-[4-(propan-2-yloxy)phenyl]prop-2-enamide] | 120.83 |
| CCCCNC(=O)C(C#N)=Cc1c[nH]nn1 [9-L04, N-butyl-2-cyano-3-(1H-1,2,3-triazol-4-yl)prop-2-enamide] | 89.588 |
| CC(Cl)C(=O)N1CCN(Cc2ccc3ccccc3n2)CC1 (centres unmarked) [7-A15, 2-chloro-1-{4-[(quinolin-2-yl)methyl]piperazin-1-yl}propan-1-one] | 107.378 |
| O=C(CCl)NC1CN(c2ccc(C(F)(F)F)cc2)C1 [7-J06, 2-chloro-N-{1-[4-(trifluoromethyl)phenyl]azetidin-3-yl}acetamide] | 97.9592 |
| CCn1cc(N2C(=O)C=CC2=O)cn1 [10-I21, 1-(1-ethyl-1H-pyrazol-4-yl)-2,5-dihydro-1H-pyrrole-2,5-dione] | 128.438 |
| C=CC(=O)NC1(c2nc(C3CC3)cc(=O)[nH]2)CCCCC1 [3-H13, N-[1-(4-cyclopropyl-6-oxo-1,6-dihydropyrimidin-2-yl)cyclohexyl]prop-2-enamide] | 104.484 |
| C=CC(=O)N(Cc1cccc2cccnc12)C1CCCN(CC)C1 (centres unmarked) [1-H11, N-(1-ethylpiperidin-3-yl)-N-[(quinolin-8-yl)methyl]prop-2-enamide] | 97.7582 |
| Cl.O=C(CCl)NC1CCN(Cc2ccccc2)C1 (centres unmarked) [6-G18, N-(1-benzylpyrrolidin-3-yl)-2-chloroacetamide hydrochloride] | 104.146 |
| CCN(Cc1cccc(C)c1)C(=O)CCl [5-J16, 2-chloro-N-ethyl-N-[(3-methylphenyl)methyl]acetamide] | 78.6885 |
| C#CCN1C(=O)C=CC1=O [10-F09, 1-(prop-2-yn-1-yl)-2,5-dihydro-1H-pyrrole-2,5-dione] | 118.438 |
| CCN1C(=O)C(=Cc2ccc(-c3ccc(F)cc3)o2)C(C)=C(C#N)C1=O [9-P09, 1-ethyl-5-{[5-(4-fluorophenyl)furan-2-yl]methylidene}-4-methyl-2,6-dioxo-1,2,5,6-tetrahydropyridine-3-carbonitrile] | 83.5955 |
| C=CC(=O)N1CCC(C(=O)N2CCCC(CC(N)=O)CC2)CC1 (centres unmarked) [2-F12, 2-{1-[1-(prop-2-enoyl)piperidine-4-carbonyl]azepan-4-yl}acetamide] | 129.852 |
| C=CC(=O)NC1CC2(CCC(C(=O)O)CC2)C1 (centres unmarked) [2-I16, 2-(prop-2-enamido)spiro[3.5]nonane-7-carboxylic acid] | 113.838 |
